# According to PubChem BioAssay AID1508642 (National Center for Advancing Translational Sciences (NCATS), 2021):
# Among all 43,000 compounds or so, about 200 (0.47%) were called active. Roughly 12% stayed inconclusive and do not appear here. Calls come from the whole dose curve; as a rule, active = well fitted cell-killing curve with a large enough effect; inconclusive = small, poorly fitted or top-dose-only effect, or effect the other way; inactive = flat fitted curve, though single readings scatter. The list shows a part of the results.
# Experiment: Cell viability qHTS assay in S16 Pmp22-F2sN cells; note: nearly all actives have a fitted effect of over 65% in size
# Conditions: S16 Pmp22-F2sN Schwann cells viability, CellTiter-Glo, 24 h; series mostly up to 57.5 µM; activity change, negative = cytotoxicity: at the top concentration
# Procedure, shortened: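 Viability was measured by CellTiter-Glo luminescence (15 min, room temperature). This followed 24 h at 37 °C of compound exposure (23 nL pin transfer) in S16 Pmp22-F2sN Schwann cells, 500-1,000 per well.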
# % is set by controls: 0 for no effect and ±100 for the full control effect.
row,Compound,"activity change, negative = cytotoxicity"
1,Cn1c(=O)c2sccc2n2c(CCCC(=O)Nc3ccc(F)cc3F)nnc12,inactive: 4.97%
2,CC(=O)Nc1cc(C(=O)NCc2ccccc2)ccc1Sc1ccc(C)cc1,inactive: 1.28%
3,Cc1cccc(N2CCN(C(=O)Cn3c(=O)c4cccn4c4ccc(F)cc43)CC2C)c1 (stereo not drawn),inactive: 0.933%
4,CNS(=O)(=O)c1cn(CC(=O)Nc2ccc(F)cc2F)cc1S(=O)(=O)NC,inactive: 0.418%
5,Cc1ccc(N2CC(c3nnc(Cc4ccc(Cl)cc4)o3)CC2=O)cc1 (stereo not drawn),inactive: 0.159%
6,O=C(NC1CCCCC1)c1ccc(Cn2c(SCc3cccc(F)c3)nc3cccnc32)cc1,inactive: -29%
7,CN(C(=O)CSc1cn(CC(=O)N2CCCCCC2)c2ccccc12)c1ccccc1,inactive: -15.2%
8,Cc1ccc(CNC(=O)C(C(C)C)N2Cc3ccccc3C2=O)cc1 (stereo not drawn),inactive: -6.38%
9,CCN(c1ccc(OC)cc1)S(=O)(=O)c1c(C(=O)N2CCCCCC2)c(C)n(C)c1C,inactive: 9.79%
10,COc1ccc(N2CCN(CC(O)COc3ccccc3C(C)(C)C)CC2)cc1 (stereo not drawn),inactive: 12.7%
11,CCc1ccccc1Nc1nn2c(=O)c3ccc(C(=O)NCCc4ccccc4)cc3nc2s1,inactive: 6.17%
12,Cc1c(Cl)cccc1NC(=O)CN1C(=O)c2ccccc2Sc2ncccc21,inactive: 17.3%
13,Cc1cccc(C(=O)NC2(C(F)(F)F)N=C(c3ccccc3)N(Cc3ccccc3)C2=O)c1 (stereo not drawn),inactive: 1.17%
14,CCOc1ccc2c(c1)c(=O)c(S(=O)(=O)c1ccc(C)cc1)cn2CC(=O)Nc1ccc(C)cc1,inactive: 0.123%
15,CCn1c(=O)c2cc(C(=O)NCCc3cccc(C)c3)sc2c2ccccc21,inactive: 5.31%
16,Cc1ccc(-c2c(CN3CCN(c4cc(Cl)ccc4C)CC3)csc2C)cc1,inactive: 6.81%
17,CC(=O)N1CCc2c(sc3c2c(=O)n(-c2ccccc2Cl)c(=O)n3C)C1,inactive: -5.84%
18,O=C(CSc1nc2ccccc2n1CC(=O)Nc1ccc(F)cc1F)Nc1ccc(F)cc1,inactive: 3.89%
19,Cc1nc(-c2ccc(F)cc2)sc1CCNC(=O)c1ccccc1,inactive: 12.6%
20,CCCN(C(=O)C1CCN(S(=O)(=O)c2c(C)noc2/C=C/c2ccc(C)cc2)CC1)c1ccccc1F,inactive: 2%
21,CCN1CCOC(=O)C1CC(=O)Nc1ccccc1C(F)(F)F (stereo not drawn),inactive: -3.04%
22,COC(=O)c1cc(C)nc2c1c(=O)nc(SCc1cc(C)ccc1C)n2C1CC1,inactive: -5.35%
23,CCCN(Cc1cc2cc(C)ccc2[nH]c1=O)C(=O)c1cccc(Cl)c1,inactive: 2.83%
24,CC(=O)c1ccc(NC(=O)c2cccc(NC(=O)N3CCSc4ncccc43)c2)cc1,inactive: -2.36%

row,Compound,"activity change, negative = cytotoxicity"
1,Cc1cc(C)cc(N(C)S(=O)(=O)c2nnc(NC(=O)COc3ccc(C)c(C)c3)s2)c1,inactive: 11.2%
2,CCOCCCNC(=O)c1c(NC(=O)Cc2coc3c(C)c(C)ccc23)sc2c1CCC2,inactive: -11.1%
3,CCOC(=O)Cn1nc(C)c(NC(=O)COc2ccc(OC)cc2)c1C,inactive: -5.25%
4,CCn1c2ccccc2c2cc(NC(=O)COc3cc(C)c(Cl)c(C)c3)ccc21,inactive: -1.62%
5,Cc1ccccc1C(=O)Nc1ccc(NC(=O)c2cccs2)cc1,inactive: -0.818%
6,CCOc1ccc(-c2csc3ncnc(Nc4cccc(O)c4)c23)cc1,inactive: 2.59%
7,COc1ccc2oc(=O)c(C(=O)NCCc3c(C)[nH]c4c(C)cccc34)cc2c1,inactive: 6.89%
8,COC(=O)c1cc(NC(=O)CCS(=O)(=O)c2cc(Br)cc3c2N(C(=O)C2CC2)CC3)cc(C(=O)OC)c1,inactive: 4.5%
9,CCOc1cc2[nH]c(=O)n(CCC(=O)N3CCN(c4cccc(Cl)c4)CC3)c(=O)c2cc1OCC,inactive: 13.5%
10,CC(=O)N1CCCc2cc(S(=O)(=O)N3CCC(C(=O)NCc4ccc(F)cc4)CC3)ccc21,inactive: -1.92%
11,CCOC(=O)c1c(C)oc2nc(C)nc(N3CCN(c4ccc(C)cc4C)CC3)c12,inactive: -13.8%
12,COc1ccc(C(=O)NCC(c2ccco2)S(=O)(=O)c2ccccc2)cc1 (stereo not drawn),inactive: 3.42%
13,CCOC(=O)c1c(C)n(-c2ccccc2)c2ccc(OC(=O)c3ccccc3Cl)cc12,inactive: 5.92%
14,CC(C)COc1ccc(C(=O)NCC2OCCc3ccccc32)cc1 (stereo not drawn),inactive: 17.5%
15,COc1ccccc1N1CCN(C(=O)C2CCN(S(=O)(=O)c3cccc4nonc34)CC2)CC1,inactive: 1.15%
16,Nc1ncc(S(=O)(=O)NCc2ccccc2F)cn1,inactive: 13%
17,NC(=O)c1c(NC(=O)c2noc3c2CCCC3)sc2c1CCCC2,inactive: 4.45%
18,Cc1cc(C)n2nc(CNC(=O)c3cccc(Cl)c3)nc2n1,inactive: -7.86%
19,Cc1ccc(NC(=O)COc2ccc3oc4c(c3c2)CCCC4)c(C)c1,inactive: 6.14%
20,CN(C)c1ccc(-c2nc(-c3ccccn3)no2)cc1[N+](=O)[O-],inactive: -18.3%
21,Cc1cccc(CNC(=O)c2ccc(-c3nc(CS(=O)(=O)c4ccccc4)c(C)o3)cc2)c1,inactive: -24.9%
22,Cc1ccc(CCNC(=O)Cn2nc(C)c3c(C)n(-c4ccc(C)cc4)nc3c2=O)cc1,inactive: -19.3%
23,COC(=O)c1sccc1S(=O)(=O)N(CC(=O)Nc1ccc(C)cc1)c1ccccc1,inactive: 1.19%
24,COc1ccccc1N1CCN(C(=O)CCn2cnc3onc(-c4ccc(F)cc4)c3c2=O)CC1,inactive: -22.6%
